The assay deals with U87MG human glioblastoma cell line. Nature of the assay: cells. Conditions: U-87 MG, read-out: EC50 U87MG.

Our source for the EC50 values is patent publication US8633183B2 (priority 2010, dated 2014).

Take `CCc1ncnc(-c2ccc(C(=O)N3CCC(N4CCCCCC4)CC3)c(OC)c2)c1C#Cc1ccc(N)nc1` [Example E-58]: the EC50 was determined as 450 nM. As for `CCc1ncnc(-c2ccc(C(=O)N3CCC(N(C)C)CC3)c(OC)c2)c1C#Cc1ccc(N)nc1` [Example E-59], the half-maximal effective concentration (EC50) turned out to be 481 nM. For the compound `CCc1ncnc(-c2ccc(C(=O)N(C)OC)c(OC)c2)c1C#Cc1ccc(N)nc1` [Example E-60], the EC50 came to 124 nM.

`CCc1ncnc(-c2ccc(C(=O)N(C)C3CCS(=O)(=O)C3)c(OC)c2)c1C#Cc1ccc(N)nc1` (stereo not shown) [Example E-61]: the EC50 came to 244 nM. The value for `CCOC(=O)N1CCN(C(=O)c2ccc(-c3ncnc(CC)c3C#Cc3ccc(N)nc3)cc2OC)CC1` [Example E-62] was 269 nM; that for `CCc1ncnc(-c2ccc(C(=O)NCCN3CCOCC3)c(OC)c2)c1C#Cc1ccc(N)nc1` [Example E-64] was 226 nM; that for `CCc1ncnc(-c2ccc(C(=O)N(C)CCN3CCCC3=O)c(OC)c2)c1C#Cc1ccc(N)nc1` [Example E-65] was 444 nM. The result for `CCc1ncnc(-c2ccc(C(=O)N3CCC4(CCN(C)C4)C3)c(OC)c2)c1C#Cc1ccc(N)nc1` (stereo not shown) [Example E-66] reads 716 nM; that for `CCc1ncnc(-c2ccc(C(=O)N3CCN(CC4CCCCC4)CC3)c(OC)c2)c1C#Cc1ccc(N)nc1` [Example E-67], 3300 nM; that for `CCc1ncnc(-c2ccc(C(=O)N3CCN(C4CCCC4)CC3)c(OC)c2)c1C#Cc1ccc(N)nc1` [Example E-68], 151 nM. The result for `CCc1ncnc(-c2ccc(C(=O)N3CCN(Cc4ccccc4)CC3)c(OC)c2)c1C#Cc1ccc(N)nc1` [Example E-69] reads 532 nM.

Consider `CCc1ncnc(-c2ccc(C(=O)N3CCC(N4CCOCC4)CC3)c(Cl)c2)c1C#Cc1ccc(N)nc1` [Example E-71], for which the EC50 is 35.4 nM. The value for `CCc1ncnc(-c2ccc(C(=O)N3CCOCC3)c(Cl)c2)c1C#Cc1ccc(N)nc1` [Example E-72] was 102 nM; that for `CCc1ncnc(-c2ccc(C(=O)N3CC(O)CO3)c(Cl)c2)c1C#Cc1ccc(N)nc1` (stereo not shown) [Example E-73] was 243 nM.

`CCc1ncnc(-c2ccc(C(=O)N3CCCO3)c(Cl)c2)c1C#Cc1ccc(N)nc1` [Example E-74]: the 50% effective concentration (EC50) is 102 nM. The result for `CCc1ncnc(-c2ccc(C(=O)N3CCCC(N(C)C)C3)c(Cl)c2)c1C#Cc1ccc(N)nc1` (stereo not shown) [Example E-75] reads 299 nM; that for `CCc1ncnc(-c2ccc(C(=O)N3CCC(N4CCC(C)CC4)C3)c(Cl)c2)c1C#Cc1ccc(N)nc1` (stereo not shown) [Example E-76], 100 nM; that for `CCc1ncnc(-c2ccc(C(=O)N(C)OC)c(Cl)c2)c1C#Cc1ccc(N)nc1` [Example E-79], 77.9 nM. The value for `CCc1ncnc(-c2ccc(C(=O)N(C)C3CCS(=O)(=O)C3)c(Cl)c2)c1C#Cc1ccc(N)nc1` (stereo not shown) [Example E-80] was 113 nM; that for `CCc1ncnc(-c2ccc(C(=O)N3CCN(S(=O)(=O)CC)CC3)c(Cl)c2)c1C#Cc1ccc(N)nc1` [Example E-81] was 34.3 nM; that for `CCOC(=O)N1CCN(C(=O)c2ccc(-c3ncnc(CC)c3C#Cc3ccc(N)nc3)cc2Cl)CC1` [Example E-82] was 108 nM. The value for `CCc1ncnc(-c2ccc(C(=O)NCCN3CCOCC3)c(Cl)c2)c1C#Cc1ccc(N)nc1` [Example E-84] was 68.4 nM; that for `CCc1ncnc(-c2ccc(C(=O)N(C)CCN3CCCC3=O)c(Cl)c2)c1C#Cc1ccc(N)nc1` [Example E-85] was 280 nM. On to `CCCCN1CCN(C(=O)c2ccc(-c3ncnc(CC)c3C#Cc3ccc(N)nc3)cc2C)CC1` [Example E-86], for which the EC50 amounted to 90.2 nM.

With `CCc1ncnc(-c2ccc(C(=O)N3CCC(C(C)(C)O)CC3)c(C)c2)c1C#Cc1ccc(N)nc1` [Example E-87], the EC50 was 147 nM. The result for `CCc1ncnc(-c2ccc(C(=O)N3CCN(C4CCOCC4)CC3)c(C)c2)c1C#Cc1ccc(N)nc1` [Example E-88] reads 47.6 nM; that for `CCc1ncnc(-c2ccc(C(=O)N3CCC(N4CCN(C)CC4)CC3)c(C)c2)c1C#Cc1ccc(N)nc1` [Example E-89], 222 nM; that for `CCc1ncnc(-c2ccc(C(=O)N3CCC(N4CCOCC4)CC3)c(C)c2)c1C#Cc1ccc(N)nc1` [Example E-91], 132 nM. The result for `CCc1ncnc(-c2ccc(C(=O)N3CCOCC3)c(C)c2)c1C#Cc1ccc(N)nc1` [Example E-92] reads 123 nM; that for `CCc1ncnc(-c2ccc(C(=O)N3CC(O)CO3)c(C)c2)c1C#Cc1ccc(N)nc1` (stereo not shown) [Example E-93], 152 nM. For `CCc1ncnc(-c2ccc(C(=O)N3CCCO3)c(C)c2)c1C#Cc1ccc(N)nc1` [Example E-94], the EC50 worked out at 119 nM. The value for `CCc1ncnc(-c2ccc(C(=O)N3CCCC(N(C)C)C3)c(C)c2)c1C#Cc1ccc(N)nc1` (stereo not shown) [Example E-95] was 267 nM; that for `CCc1ncnc(-c2ccc(C(=O)N3CCC(N4CCC(C)CC4)C3)c(C)c2)c1C#Cc1ccc(N)nc1` (stereo not shown) [Example E-96] was 125 nM. The result for `CCc1ncnc(-c2ccc(C(=O)N3CCC4(CCN(C)CC4)CC3)c(C)c2)c1C#Cc1ccc(N)nc1` [Example E-97] reads 290 nM. The result for `CCc1ncnc(-c2ccc(C(=O)N3CC[C@H](N(C)C)C3)c(C)c2)c1C#Cc1ccc(N)nc1` [Example E-99] reads 270 nM; that for `CCc1ncnc(-c2ccc(C(=O)N3CCN4CCCCC4C3)c(C)c2)c1C#Cc1ccc(N)nc1` (stereo not shown) [Example E-101], 81.8 nM; that for `CCc1ncnc(-c2ccc(C(=O)N3CCC(N4CCCCCC4)CC3)c(C)c2)c1C#Cc1ccc(N)nc1` [Example E-102], 109 nM. Consider `CCc1ncnc(-c2ccc(C(=O)N3CCC(N(C)C)CC3)c(C)c2)c1C#Cc1ccc(N)nc1` [Example E-103], for which the concentration for a half-maximal effect (EC50) stood at 210 nM.

Take `CCc1ncnc(-c2ccc(C(=O)N(C)OC)c(C)c2)c1C#Cc1ccc(N)nc1` [Example E-104]: the EC50 worked out at 104 nM.

`CCc1ncnc(-c2ccc(C(=O)N(C)C3CCS(=O)(=O)C3)c(C)c2)c1C#Cc1ccc(N)nc1` (stereo not shown) [Example E-105]: the EC50 was 145 nM. The value for `CCc1ncnc(-c2ccc(C(=O)N3CCN(S(=O)(=O)CC)CC3)c(C)c2)c1C#Cc1ccc(N)nc1` [Example E-106] was 44.3 nM.

For `CCOC(=O)N1CCN(C(=O)c2ccc(-c3ncnc(CC)c3C#Cc3ccc(N)nc3)cc2C)CC1` [Example E-107], the EC50 amounted to 117 nM.

With `CCc1ncnc(-c2ccc(C(=O)N3CCN(C(C)=O)CC3)c(C)c2)c1C#Cc1ccc(N)nc1` [Example E-108], the concentration giving a half-maximal response (EC50) is 143 nM. The result for `CCc1ncnc(-c2ccc(C(=O)N3CCC(N4CCCCC4)CC3)c(C)c2)c1C#Cc1ccc(N)nc1` [Example E-109] reads 82.8 nM; that for `CCc1ncnc(-c2ccc(C(=O)N(C)CCN3CCCC3=O)c(C)c2)c1C#Cc1ccc(N)nc1` [Example E-111], 267 nM; that for `CCc1ncnc(-c2ccc(C(=O)N3CCC4(CCN(C)C4)C3)c(C)c2)c1C#Cc1ccc(N)nc1` (stereo not shown) [Example E-112], 336 nM.

As for `CCc1ncnc(-c2ccc(C(=O)N3CCN(CC4CCCCC4)CC3)c(C)c2)c1C#Cc1ccc(N)nc1` [Example E-113], the EC50 came out at 356 nM. The result for `CCc1ncnc(-c2ccc(C(=O)N3CCN(C4CCCC4)CC3)c(C)c2)c1C#Cc1ccc(N)nc1` [Example E-114] reads 47.4 nM. The value for `CCc1ncnc(-c2ccc(C(=O)N3CCN(Cc4ccccc4)CC3)c(C)c2)c1C#Cc1ccc(N)nc1` [Example E-115] was 153 nM.

`CCc1ncnc(-c2ccc(C(=O)N3CCN(CC4CC4)CC3)c(C)c2)c1C#Cc1ccc(N)nc1` [Example E-116]: the EC50 is 18.6 nM. The result for `CCc1ncnc(-c2ccc(C(=O)N3CCC4(CC3)OCCCO4)c(C)c2)c1C#Cc1ccc(N)nc1` [Example E-117] reads 26.7 nM; that for `CCc1ncnc(-c2ccc(C(=O)N3CCC(OC)CC3)c(C)c2)c1C#Cc1ccc(N)nc1` [Example E-118], 30.9 nM. The result for `CCc1ncnc(-c2ccc(C(=O)N3CCC(C4CCN(C)CC4)CC3)c(C)c2)c1C#Cc1ccc(N)nc1` [Example E-119] reads 45 nM. The result for `CCc1ncnc(-c2ccc(C(=O)N3CC[S+]([O-])CC3)c(C)c2)c1C#Cc1ccc(N)nc1` [Example E-121] reads 53.6 nM; that for `CCc1ncnc(-c2ccc(C(=O)N3CCC(C)(O)CC3)c(C)c2)c1C#Cc1ccc(N)nc1` [Example E-122], 55.7 nM; that for `CCc1ncnc(-c2ccc(C(=O)N3CCC(N(C)C)C3)c(C)c2)c1C#Cc1ccc(N)nc1` (stereo not shown) [Example E-125], 101 nM.

`CCc1ncnc(-c2ccc(C(=O)N3CCC(N4CCCC4)CC3)c(C)c2)c1C#Cc1ccc(N)nc1` [Example E-126]: the EC50 was found to be 89 nM. The value for `CCc1ncnc(-c2ccc(C(=O)N3CCNCC3)c(C)c2)c1C#Cc1ccc(N)nc1` [Example E-127] was 67.8 nM. The result for `CCc1ncnc(-c2ccc(C(=O)N(C)O)c(C)c2)c1C#Cc1ccc(N)nc1` [Example E-128] reads 55.1 nM; that for `CCc1ncnc(-c2ccc(C(=O)N3CCCN(C)CC3)c(C)c2)c1C#Cc1ccc(N)nc1` [Example E-129], 86.5 nM; that for `CCc1ncnc(-c2ccc(C(=O)N3CCN(c4ccccn4)CC3)c(C)c2)c1C#Cc1ccc(N)nc1` [Example E-130], 33.3 nM. The value for `CCc1ncnc(-c2ccc(C(=O)N3CCN(c4ccncc4)CC3)c(C)c2)c1C#Cc1ccc(N)nc1` [Example E-131] was 82.7 nM. As to `CCc1ncnc(-c2ccc(C(=O)N3CCC(O)CC3)c(C)c2)c1C#Cc1ccc(N)nc1` [Example E-132], the EC50 was 69.7 nM. On to `CCc1ncnc(-c2ccc(C(=O)N3CCCOCC3)c(C)c2)c1C#Cc1ccc(N)nc1` [Example E-133], for which the half-maximal effective concentration (EC50) came out at 43.1 nM.

Consider `CCc1ncnc(-c2ccc(C(=O)NCC3(C)COC3)c(C)c2)c1C#Cc1ccc(N)nc1` [Example E-134], for which the EC50 was 34.8 nM. The result for `CCc1ncnc(-c2ccc(C(=O)N3CCN(c4ccccc4)CC3)c(C)c2)c1C#Cc1ccc(N)nc1` [Example E-135] reads 59.1 nM; that for `CCc1ncnc(-c2ccc(C(=O)N3CCN4CCC[C@@H]4C3)c(Cl)c2)c1C#Cc1ccc(N)nc1` [Example E-139], 74.2 nM.
